Test results taken from PubChem BioAssay AID623901 (Broad Institute, 2012).
Screen size: about 340,000 compounds; about 470 (0.14%) were called active. This list was built around the results that the source calls inconclusive (neither active nor inactive); the mix of calls is not that of the screen.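 Rule for the calls: active = mean activation of 30% or more, with every replicate also reaching 30%; inconclusive = mean activation of 30% or more but some replicate falls short; inactive = the rest.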

test: small molecules raising miR-122 sensor signal – cell-based, Huh7 psiCHECK-miR122, Renilla luciferase, single point, primary screen (AID 623901); conditions: 48 h, at 12.5 µM, active compounds read high;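 note: 0% = median of neutral control wells and 100% = median of positive control wells; higher luciferase signal means stronger suppression of miR-122 activity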

SMILES | activation
CNC(=O)C[C@H]1CC[C@H]2[C@@H](COc3ccc(NC(=O)C(C)C)cc3C(=O)N2C)O1 | inconclusive: 33.3%
C[C@H](O)C#Cc1ccc2c(c1)O[C@@H](CN(C)Cc1cncnc1)[C@@H](C)CN([C@H](C)CO)S2(=O)=O | inactive: 3.56%
COc1ccc(-c2cc(-c3nc4ccccn4c3NCc3ccccc3)ccc2OC)cc1 | inconclusive: 31.6%
CCCC(NS(=O)(=O)c1ccc(Br)cc1)C(=O)O (stereo not drawn) | active: 35.9%
Fc1ccc(CN2CCN(c3ncnc4scc(-c5ccc(F)cc5)c34)CC2)cc1 | inconclusive: 31.2%
CN1C(=O)c2cc(NC(=O)c3ccc4c(c3)OCO4)ccc2OC[C@H]2O[C@H](CC(=O)O)CC[C@@H]21 | inconclusive: 33.3%
CO[C@H]1CN(C)C(=O)c2ccc(NS(C)(=O)=O)cc2OC[C@H](C)N(C(=O)CN(C)C)C[C@H]1C | inconclusive: 33.7%
COc1ccc(C(=O)N2C[C@H]3[C@@H](c4ccccc42)[C@@H](CO)N3C(=O)Cc2ccccn2)cc1 | inconclusive: 35.7%
CO[C@H]1CN(C)C(=O)c2cc(NC(=O)c3nc4ccccc4s3)ccc2OC[C@@H](C)N(Cc2ccncc2)C[C@@H]1C | inactive: 0.145%
Cc1noc(C)c1NC(=O)N(C)C[C@@H]1Oc2cc(C#CCC(C)C)ccc2S(=O)(=O)N([C@@H](C)CO)C[C@@H]1C | inactive: 4.06%
COc1cccc(NC(=O)N2[C@H](CO)[C@@H](c3ccccc3)[C@H]2CNCC(C)C)c1 | inconclusive: 58.3%
CCN(C[C@@H]1[C@@H](c2ccccc2)[C@H](CO)N1C(C)=O)C(=O)NC(C)C | inconclusive: 36%
O=C(Nc1ccccc1)N1CCCCN2[C@@H](CO)[C@H](c3ccc(C4=CCCCC4)cc3)[C@@H]2C1 | inconclusive: 30.2%
CN(C[C@H]1N[C@@H](CO)[C@H]1c1ccc(-c2cccc(F)c2)cc1)C(=O)C1CCC1 | inconclusive: 36.8%
Cc1oc2c(c1C(=O)N1CCOCC1)C(=O)c1ccccc1C2=O | inconclusive: 30.7%
C[C@H](CO)N1C[C@H](C)[C@H](CN(C)S(=O)(=O)c2cccc(F)c2)Oc2ncc(-c3ccc(F)cc3)cc2C1=O | inactive: 5.58%
CN1C(=O)c2cc(NC(=O)c3cccs3)ccc2OC[C@@H]2O[C@@H](CC(=O)NCC(F)(F)F)CC[C@H]21 | inconclusive: 33.3%
COc1ccc(/C=C/C(=O)Nc2ccc(C34CC5CC(CC(O)(C5)C3)C4)cc2)cc1OC | active: 56.9%
COc1cccc(S(=O)(=O)N(C)C[C@@H]2Oc3cc(C4=CCCC4)ccc3S(=O)(=O)N([C@H](C)CO)C[C@@H]2C)c1 | inconclusive: 32.9%
C[C@H](CO)N1C[C@H](C)[C@H](CN(C)C)Oc2ncc(C#CC3CC3)cc2C1=O | inactive: 0.479%
COc1ccc(S(=O)(=O)NCc2ccccn2)cc1NC(=O)c1ccc(C)cc1 | inactive: -93.7%
CNC(=O)C[C@@H]1CC[C@H]2[C@@H](COc3ccc(NC(=O)C(C)C)cc3C(=O)N2C)O1 | inconclusive: 50%
COc1ccc(C(C#N)Nc2ccc(C)cc2)cc1 (stereo not drawn) | active: 49.7%

SMILES | activation
C/C=C/c1ccc([C@@H]2[C@@H](CNC(=O)c3ccncc3)N(C(=O)CC)[C@H]2CO)cc1 | inconclusive: 50%
CCN(C[C@@H]1N[C@@H](CO)[C@@H]1c1ccc(C2=CCCC2)cc1)C(=O)c1cccnc1 | inconclusive: 75%
COc1ccc(-c2cnc3c(c2)C(=O)N([C@H](C)CO)C[C@@H](C)[C@@H](CN(C)C(=O)Cc2ccccc2)O3)cc1 | inactive: 0.351%
CC1CCC(C(C)C)C(OC(=O)Cn2c(-c3ccccc3)[n+](C)c3ccccc32)C1 (stereo not drawn) | inconclusive: 36.5%
C[C@@H]1CN([C@H](C)CO)S(=O)(=O)c2ccc(C3=CCCCC3)cc2O[C@@H]1CN(C)C(=O)Cc1ccncc1 | inconclusive: 34.9%
O=C(Oc1c(CN2CCOCC2)cc(Cl)c2cccnc12)c1ccc(F)cc1 | inconclusive: 40.1%
C/C=C/c1ccc2c(c1)O[C@H](CN(C)C(=O)Nc1ccc(OC)cc1)[C@@H](C)CN([C@@H](C)CO)S2(=O)=O | inactive: -21.2%
CNC(=O)C[C@@H]1CC[C@@H]2[C@@H](COc3ccc(NC(=O)Nc4ccc(F)c(F)c4)cc3C(=O)N2C)O1 | inconclusive: 33.3%
C[C@H](CO)N1C[C@H](C)[C@H](CN(C)C(=O)c2ccc3c(c2)OCO3)Oc2cc(C#Cc3ccccc3F)ccc2S1(=O)=O | inconclusive: 30.4%
CCCNC(=O)N1C[C@@H]2[C@H](c3ccccc31)[C@H](CO)N2C(=O)C1CCOCC1 | inconclusive: 40.3%
CNC[C@H]1Oc2cc(C#CC(C)C)ccc2S(=O)(=O)N([C@@H](C)CO)C[C@H]1C | inactive: -9.31%
COc1cccc(C(=O)Nc2ccc3c(c2)C(=O)N(C)[C@H]2CC[C@H](CC(=O)NCc4ccc(F)cc4)O[C@H]2CO3)c1 | inconclusive: 33.3%
CCC(=O)N(C)C[C@H]1Oc2cc(C#Cc3ccccc3)ccc2S(=O)(=O)N([C@@H](C)CO)C[C@H]1C | active: 48.4%
CN(C)c1ncnc2c1ncn2C1OC(CO)C(O)C1O (stereo not drawn) | inconclusive: 31%
C/C=C/c1ccc([C@H]2[C@@H](CO)N(Cc3ccccn3)[C@H]2CNC(=O)CC)cc1 | inconclusive: 108%
CN1C(=O)c2cc(NC(=O)c3ccc(C(F)(F)F)cc3)ccc2OC[C@@H]2O[C@@H](CC(=O)NC3Cc4ccccc4C3)CC[C@@H]21 | active: 55%
CNC(=O)C[C@H]1CC[C@@H]2[C@@H](COc3ccc(NC(=O)C(C)C)cc3C(=O)N2C)O1 | inconclusive: 43.3%
C=CCNC(=S)NNC(=O)c1cccn(Cc2ccc(Cl)c(Cl)c2)c1=O | active: 70.8%
O=C(O/N=C1\CCS(=O)(=O)c2sccc21)c1ccccc1 | inactive: -170%
CCCCc1cc(=O)oc2cc(C)cc(OC(C)C(=O)O)c12 (stereo not drawn) | active: 31.7%
CO[C@@H]1CN(C)C(=O)c2cc(NC(=O)c3nc4ccccc4s3)ccc2OC[C@@H](C)N(Cc2ccncc2)C[C@@H]1C | inactive: 0.505%
C[C@H]1CN([C@@H](C)CO)C(=O)c2cc(-c3ccc(F)cc3)cnc2O[C@@H]1CN(C)C(=O)c1ccccn1 | inactive: 4.7%
Cc1ccc(S(=O)(=O)c2ccc([N+](=O)[O-])cn2)cc1 | active: 32.8%

SMILES | activation
CNC[C@H]1Oc2cc(C#Cc3cccc(F)c3)ccc2S(=O)(=O)N([C@@H](C)CO)C[C@H]1C | inactive: -4.73%
CO[C@H]1CN(C)C(=O)c2cc(NC(=O)Nc3ccc(Cl)c(Cl)c3)ccc2OC[C@H](C)NC[C@H]1C | active: 50.9%
CCCC(=O)Nc1ccc2c(c1)C(=O)N(C)[C@@H]1CC[C@H](CC(=O)NCCOC)O[C@H]1CO2 | inconclusive: 60%
C[C@@H]1CN([C@@H](C)CO)C(=O)c2cc(/C=C/c3ccccc3)cnc2O[C@H]1CN(C)C(=O)C1CCOCC1 | inactive: -3.26%
COc1cccc(Nc2nc(NCC3CCCO3)c3ccccc3n2)c1 (stereo not drawn) | active: 51.4%
O=C(Cc1ccccc1)N1C[C@H]2[C@@H](c3ccccc31)[C@@H](CO)N2C(=O)C1CCCCC1 | inactive: -200%
C[C@@H]1CN([C@@H](C)CO)C(=O)c2cc(C#CC3CC3)cnc2O[C@H]1CN(C)C | inactive: 3.32%
Cc1cc(C(=O)Nc2ccc3c(c2)C(=O)N(C)[C@H]2CC[C@H](CC(=O)N[C@@H](C)c4ccccc4)O[C@H]2CO3)no1 | active: 50%
COc1ccc(C#Cc2ccc3c(c2)O[C@@H](CN(C)C(=O)CN2CCOCC2)[C@@H](C)CN([C@H](C)CO)S3(=O)=O)cc1 | active: 35.8%
CCNC(=O)C[C@H]1CC[C@H]2[C@@H](COc3ccc(NS(C)(=O)=O)cc3C(=O)N2C)O1 | inconclusive: 33.3%
CC(C)CC#Cc1cnc2c(c1)C(=O)N([C@H](C)CO)C[C@H](C)[C@H](CN(C)C(=O)Nc1cccc(F)c1)O2 | inactive: 1.56%
CNC(=O)C[C@@H]1CC[C@@H]2[C@H](COc3ccc(NC(=O)Nc4ccc(Cl)cc4)cc3C(=O)N2C)O1 | inconclusive: 33.3%
C/C=C/c1ccc2c(c1)O[C@@H](CN(C)C(=O)Nc1ccc(OC)cc1)[C@@H](C)CN([C@H](C)CO)S2(=O)=O | inactive: 3.81%
COc1ccc(Oc2ccc(N/C=C3\CCCC3=O)cc2)cc1 | active: 35.9%
CO[C@H]1CN(C)C(=O)c2ccc(NC(=O)NC(C)C)cc2OC[C@@H](C)NC[C@H]1C | inactive: -13.2%
CC(=O)N1[C@H](CN(C(=O)c2ccc(F)cc2)C(C)C)[C@H](c2ccccc2)[C@@H]1CO | active: 66.7%
C[C@H]1CN([C@@H](C)CO)S(=O)(=O)c2ccc(/C=C/c3ccccc3)cc2O[C@H]1CN(C)C(=O)Nc1cccc(F)c1 | inactive: -13.2%
CCOc1ccccc1N1CCN(C(=O)c2ccc3[nH]c(C)c(C)c3c2)CC1 | inactive: -100%
Cc1cc(C(=O)Nc2ccc3c(c2)C(=O)N(C)[C@H]2CC[C@@H](CC(=O)N[C@@H](C)c4ccccc4)O[C@H]2CO3)no1 | inconclusive: 33.3%
Cc1noc(C)c1NC(=O)N(C)C[C@H]1Oc2ncc(C#CC3CCCCC3)cc2C(=O)N([C@H](C)CO)C[C@H]1C | inactive: 2.81%
COCC(=O)Nc1ccc2c(c1)C(=O)N(C)[C@@H]1CC[C@@H](CC(=O)NCc3ccc(OC)cc3)O[C@H]1CO2 | inconclusive: 45.8%
COc1cccc(-c2csc(N3CCN(CC(=O)Nc4ccc5c(c4)OCO5)CC3)n2)c1 | inconclusive: 42.4%
